Measurements taken from ChEMBL document CHEMBL4888484, “Replenishing the malaria drug discovery pipeline: Screening and hit evaluation of the MMV Hit Generation Library 1 (HGL1) against asexual blood stage Plasmodium falciparum ,using a nano luciferase reporter read-out” (2022).
Hit rate of the full screen: of about 150,000 compounds, about 540 (0.36%) showed an effect of 50% or more. Some of the results follow.

tested on: Plasmodium falciparum; test: Primary screen in NF54 nanoGlo assay, in single point, at 2uM, 72h; a lower Z score goes with more inhibition; format: functional, Erythrocyte; settings: timepoint 72 hour

| Structure (SMILES) | % Inhibition [%] | Z score |
| --- | --- | --- |
| CCc1cc(NCC2(O)CCN(C(=O)c3nccc4occc34)CC2)nc(C)n1 | 19 | -2.46 |
| Cc1cccc(CNC(=O)N[C@H]2CC[C@@H](CO)C2)c1Br | -7 | 1.01 |
| CC(C)C(=O)N(CC(=O)Nc1nc(-c2ccccc2)cn1-c1ccc(F)cc1)CC1CC1 | -8 | 0.9 |
| Cc1ncsc1CN(C)C(=O)N[C@H]1CC(=O)N(c2ccccc2)C1 | 5 | -0.71 |
| Cc1nc2ncnn2c(Oc2ccc(-n3cccn3)cc2)c1C | -18 | 2.14 |
| CN(CCCNC(=O)NC1CC2CCC1O2)c1cccc(F)c1 (stereo not given) | -18 | 1.5 |
| Cc1cccc(-c2nocc2CCC(=O)O)c1 | -30 | 2.61 |
| Cc1cc(-c2nc(C)nn2C(C)(C)C)c2c(C)nn(C)c2n1 | -11 | 1.56 |
| COc1cc(C)ccc1OCCN1CC[C@]2(CCCO2)CCC1=O | -1 | 0.16 |
| O=C1O[C@H]2CN(CCCc3ccccc3)C[C@H]2N1Cc1ccccn1 | -16 | 1.43 |
| Cc1cccc2oc(Cn3cnc(-c4ccccc4)c3[C@H]3CCOC3)nc12 | -10 | 0.99 |
| CC1CN(C)CCN1C(=O)CCCCC(=O)N1CCN(C)CC1C (stereo not given) | -12 | 1.92 |
| CCc1nnsc1C(=O)N[C@@H](C)c1cccs1 | 4 | -0.59 |
| Cc1cc(NCCN2CCC[C@H](C)C2)nc(N(C)C)n1 | 11 | -1.27 |
| COc1ccc([C@H](C)NCc2cnc3c(c2)c(C)nn3C)c(C)c1OC | 3 | -0.26 |
| COCCN(CC(N)=O)CC(=O)N1CCCCCC1 | -11 | 1.37 |
| C[C@H]1Cc2ccccc2N1C(=O)c1ccc(=O)n(CCC(=O)NCc2ccccc2)n1 | 5 | -0.76 |
| CC(C)(C)OC(=O)N1CCC[C@@H]1CCCNC(=O)C1CC(=O)C1 | -1 | 0.12 |
| CN(CC1CC1)C(=O)NC1C2CCCOC2C1(C)C (stereo not given) | -7 | 0.97 |
| CCOC(=O)c1cnc(C)c(NC(=O)NCc2nncn2C)c1 | -7 | 1.17 |
| CCCCCOCC(=O)N[C@H](C)c1cnccn1 | -8 | 1.31 |
| Cc1ccc(-c2nn(CN3CCC(Cc4ccccc4)CC3)c(=S)o2)cc1C | -8 | 1.5 |
| COc1ccc(-c2cn3ccccc3c2S(=O)(=O)c2ccc(F)cc2)cc1OC | -6 | 0.97 |
| Cc1nc(C(C)(C)NS(C)(=O)=O)sc1C | -4 | 0.52 |
| CCCc1nnc(NC(=O)N(C)Cc2noc(-c3ccccc3)n2)[nH]1 | -14 | 1.95 |
| COc1ccc(-c2cc3cc(OC)c(OC)cc3c(Cc3cccc4ccccc34)n2)cc1 | -7 | 1.17 |
| Cn1cc(CNc2cc(F)ccc2N2CCCCC2)cn1 | -5 | 0.56 |
| CC(C)C(=O)NCCN(C)C(=O)C#C[C@H]1CCOC1 | -5 | 0.6 |

| Structure (SMILES) | % Inhibition [%] | Z score |
| --- | --- | --- |
| CCc1noc2nc(C)n(CC(=O)NCCc3ccccc3)c(=O)c12 | -5 | 0.69 |
| O=C(NCc1ccco1)c1nc(CCS(=O)(=O)c2ccccc2)no1 | -13 | 1.76 |
| O=C(NC[C@@H](CO)Cc1ccccc1)c1nscc1Br | -8 | 1.15 |
| CCN(CC)CCN(C(=O)c1ccc(S(=O)(=O)N2CCCCC2)cc1)c1nc2cc3c(cc2s1)OCCO3 | 31 | -3.94 |
| Cc1cc(Cl)ccc1S(=O)(=O)N1CCc2nnc([C@H]3CCN(C(C)C)C3)n2CC1 | 30 | -4.06 |
| c1ccc(C(c2ccccc2)c2noc3c2CN(Cc2cccnc2)CC3)cc1 | 9 | -1.11 |
| Cc1ccccc1C(O)CNS(=O)(=O)N1CCCC(C)C1 (stereo not given) | -1 | 0.11 |
| O=C(c1c(Cl)cccc1Cl)N1CCn2cncc2C1 | 0 | 0.1 |
| CN(Cc1ccccc1)[C@H]1CCN(CC(=O)Nc2nccs2)C1 | -14 | 2.75 |
| NC(=O)c1c(NC(=O)c2cc(-c3ccc(Cl)cc3Cl)nc3ccccc23)sc2c1CCCCC2 | 29 | -3.9 |
| O=C(O)c1cc2cc(Oc3ccccc3)ccc2n2nnnc12 | -2 | 0.24 |
| COc1ccccc1-c1nnc(-c2cnc3onc(C4CCCC4)c3c2)o1 | -5 | 0.77 |
| CCN1C(=O)CCN(C(=O)Nc2ccccc2)CC12CCOCC2 | -9 | 1.13 |
| O=C(CO)N1CCOc2c(F)cccc2C1 | 2 | -0.3 |
| O=C(NCc1cccnc1)c1cnn2c3c(cnc12)CCCC3 | 36 | -5.27 |
| Cc1ccc(NC(=O)CN2C(=O)COC2=O)c(C)c1 | -12 | 1.4 |
| CC(=O)Nc1nc(C(=O)N2CCCCO2)cs1 | -3 | 0.38 |
| Cc1onc(C(=O)N2CCC3(CCCN(C)[C@@H]3C(N)=O)CC2)c1COc1ccccc1 | -5 | 1.03 |
| CN(C)C(=O)CN(C)S(=O)(=O)Cc1ccccc1 | -5 | 0.6 |
| O=C(c1cnc(O)cn1)N1CCC[C@H]1c1nc(-c2ccccc2)no1 | 8 | -0.7 |
| CCc1nnc(CN(C)Cc2ccc3c4c(cccc24)C(=O)OC3)o1 | -9 | 1.1 |
| CC(C)n1ncnc1-c1ccc(C(=O)NCc2ccc(CO)cc2)cc1 | -3 | 0.51 |
| COc1ccc(NC(C)(C)C(=O)N2C[C@H](CO)[C@@H](CO)C2)cc1 | 2 | -0.38 |
| Cc1cccc(CN2CCC(c3nc(C)ccc3C(=O)N3CCCCC3)CC2)c1 | -20 | 2.54 |
| Cc1cc(C(=O)N2CCC[C@H](CCC(=O)O)C2)c(C)n1C(C)C | -11 | 1.96 |
| CN1CCN(C(=O)c2csc3c2CCCC3)CC1 | -7 | 0.95 |
| CC(C)(C)OC(=O)N1CCNC(=O)C1(C)C | 2 | -0.31 |
